From US11426395B2, “PSMA inhibitor derivatives for labelling with 99mTc via HYNIC, a radiopharmaceutical kit, radiopharmaceutical preparations and their use in prostate cancer diagnostics” (Narodowe Centrum Badan Jadrowych, Osrodek Radioizotopow …, priority 2019, dated 2022)

How the values were obtained:
[1] = Stability of hydrazones in solution; conditions: pH=7 phosphate buffer solution
[2] = Solubility according to Ph. Eur.
PSMA receptor = PSMA receptor (Homo sapiens, UniProt Q04609); test: Competition ligand binding on LNCaP carcinoma cell membranes against 131I-MIP1095
Experimental: An important advantage of the compounds described herein is their high affinity to the PSMA receptor present on prostate cancer cells. Competition ligand binding in vitro studies carried out on LNCaP carcinoma cell membranes allowed for determination of IC50 values, namely the concentrations at which the dissociation equilibrium is maintained. The studies were carried out using 96-well plates equipped with filters, to which the identical amount of membranes was applied.

[3] = Biodistribution of 99mTc-labelled PSMA preparations in healthy BALB/c mice; format: in vivo; conditions: 99mTc-labelled preparations, 4 h p.i.v.
Experimental: In comparative biodistribution studies on three PSMA preparations labelled with 99mTc, healthy BALB/c mice (males with body weight of 18-27 g) were used. 0.1 mL preparations with the activity of around 6 MBq were administered to the tail vein. After 4 hours of p.i.v. administration, animals were subjected to inhalation euthanasia and then required organs were collected and weighted, and the radioactivity accumulated therein was measured. Preparation accumulation in selected organs or tissues is given as % ID (percentage of injected dose) and % ID/g (percentage of injected dose per gram of the organ or tissue). […]

[4] = LNCaP cell membranes, competitor 131I-MIP1095, 2-hour incubation, read-out: IC50

Sequence of UniProt Q04609 (Q04609 whole entry): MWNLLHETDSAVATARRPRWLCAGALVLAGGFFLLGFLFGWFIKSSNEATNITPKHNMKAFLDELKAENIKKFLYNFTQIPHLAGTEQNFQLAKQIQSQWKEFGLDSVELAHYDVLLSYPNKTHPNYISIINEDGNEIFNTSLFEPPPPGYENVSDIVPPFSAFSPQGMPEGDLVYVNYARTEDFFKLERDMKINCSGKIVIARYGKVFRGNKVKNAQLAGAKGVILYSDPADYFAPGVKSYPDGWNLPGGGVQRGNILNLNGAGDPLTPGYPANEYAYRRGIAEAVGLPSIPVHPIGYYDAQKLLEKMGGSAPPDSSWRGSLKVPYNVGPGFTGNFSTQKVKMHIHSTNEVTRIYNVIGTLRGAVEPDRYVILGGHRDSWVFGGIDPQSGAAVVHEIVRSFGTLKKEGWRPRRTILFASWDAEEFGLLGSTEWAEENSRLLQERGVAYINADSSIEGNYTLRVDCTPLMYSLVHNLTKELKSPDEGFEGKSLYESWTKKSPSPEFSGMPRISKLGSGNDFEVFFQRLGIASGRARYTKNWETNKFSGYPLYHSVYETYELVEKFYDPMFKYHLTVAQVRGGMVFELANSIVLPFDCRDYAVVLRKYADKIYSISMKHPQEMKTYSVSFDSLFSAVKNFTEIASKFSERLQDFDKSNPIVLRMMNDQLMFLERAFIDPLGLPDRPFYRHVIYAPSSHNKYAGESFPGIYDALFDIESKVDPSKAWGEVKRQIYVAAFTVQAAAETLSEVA

SMILES | Stability in solution [1] | Solubility according to Ph. Eur. ([2]; ethanol) | Solubility according to Ph. Eur. ([2]; pH 7.4 phosphate buffer) | Solubility according to Ph. Eur. ([2]; water) | IC50 (PSMA receptor; [4]) [nM] | Retention levels of radioactivity in kidneys compared with 99mTc-iPSMA reference preparation [3] | IC50 (PSMA receptor) [nM]
CN(C)c1ccc(C=NNc2ccc(C(=O)NCC3CCC(C(=O)NC(Cc4c[nH]c5ccccc45)C(=O)NCCCCC(NC(=O)NC(CCC(=O)O)C(=O)O)C(=O)O)CC3)cn2)cc1 (centres unmarked) [4-(dimethylaminebenzene)hydrazone of PSMA-T4] | stable in the pH=7 phosphate buffer solution at least for a day | ethanol: soluble | soluble | water: practicaly insoluble |  |  | 
O=C(O)CCc1ccc(O)c(CN(CCN(CC(=O)O)Cc2cc(CCC(=O)NCCCCCC(=O)NCCCC[C@H](NC(=O)N[C@@H](CCC(=O)O)C(=O)O)C(=O)O)ccc2O)CC(=O)O)c1 [PSMA 11, reference compound] |  |  |  |  | 719 |  | 
NNc1ccc(C(=O)NCC2CCC(C(=O)NC(Cc3ccc4ccccc4c3)C(=O)NCCCCC(NC(=O)NC(CCC(=O)O)C(=O)O)C(=O)O)CC2)cn1 (centres unmarked) [PSMA-T1, PSMA-NaI-Amc-HYNIC] |  | ethanol: soluble | very slightly soluble | water: slightly soluble | 97 |  | 
NNc1ccc(C(=O)NCCCCCC(=O)N[C@@H](Cc2ccc3ccccc3c2)C(=O)NCCCC[C@H](NC(=O)N[C@@H](CCC(=O)O)C(=O)O)C(=O)O)cn1 [PSMA-T2, PSMA-NaI-6Ahx-HYNIC] |  |  |  |  | 143 |  | 
NNc1ccc(C(=O)NCCCCCC(=O)N[C@@H](Cc2c[nH]c3ccccc23)C(=O)NCCCC[C@H](NC(=O)N[C@@H](CCC(=O)O)C(=O)O)C(=O)O)cn1 [PSMA-T3, PSMA-LTrp-6Ahx-HYNIC] |  | ethanol: soluble | very slightly soluble | water: insoluble | 75 | significantly lower | 
NNc1ccc(C(=O)NCC2CCC(C(=O)NC(Cc3c[nH]c4ccccc34)C(=O)NCCCCC(NC(=O)NC(CCC(=O)O)C(=O)O)C(=O)O)CC2)cn1 (centres unmarked) [PSMA-T4, PSMA-LTrp-4Amc-HYNIC] |  |  |  |  |  | significantly lower | 80
COc1cc(C=NNc2ccc(C(=O)NCC3CCC(C(=O)NC(Cc4c[nH]c5ccccc45)C(=O)NCCCCC(NC(=O)NC(CCC(=O)O)C(=O)O)C(=O)O)CC3)cn2)ccc1O (centres unmarked) [Vanilin hydrazine of PSMA-T4] |  | ethanol: soluble | slightly soluble | water: practicaly insoluble |  |  | 

Like-named read-outs stand apart in the source and are kept apart here.
